PubChem BioAssay AID1159614 (National Center for Advancing Translational Sciences (NCATS), 2016)
Out of some 45,000 compounds screened, about 65 (0.1%) were called active. Calls follow the shape of the dose curve; as a rule, active = well fitted activation curve with a large enough effect; inconclusive = small, poorly fitted or top-dose-only effect; inactive = no such curve, though single readings can be large or run the other way. The list shows a part of the results.

Target: Galactocerebrosidase (Homo sapiens) (UniProt P54803)
Assay: A Novel Cell-Based Assay to Identify Small Molecules for B -Galactocerebrosidase; also: 0% is about no effect; nearly all actives have a fitted effect of over 65% in size
Conditions: 145M-Twi-hGALC-G270D cells (Twitcher mouse brain line with human GALC G270D), HMU-beta-Gal fluorescence, 48 h; series mostly up to 57.5 µM; activation: at the top concentration
Outline: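 Live 145M-Twi cells (Twitcher mouse brain-derived, GALC-null) stably expressing human GALC-G270D, with a wild-type GALC line, were compound-treated. Residual GALC activity was then read as fluorescence from 0.1 mM final HMU-β-gal at pH 5.2; higher signal means activation.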

Sequence of UniProt P54803 (P54803 whole entry, looked up): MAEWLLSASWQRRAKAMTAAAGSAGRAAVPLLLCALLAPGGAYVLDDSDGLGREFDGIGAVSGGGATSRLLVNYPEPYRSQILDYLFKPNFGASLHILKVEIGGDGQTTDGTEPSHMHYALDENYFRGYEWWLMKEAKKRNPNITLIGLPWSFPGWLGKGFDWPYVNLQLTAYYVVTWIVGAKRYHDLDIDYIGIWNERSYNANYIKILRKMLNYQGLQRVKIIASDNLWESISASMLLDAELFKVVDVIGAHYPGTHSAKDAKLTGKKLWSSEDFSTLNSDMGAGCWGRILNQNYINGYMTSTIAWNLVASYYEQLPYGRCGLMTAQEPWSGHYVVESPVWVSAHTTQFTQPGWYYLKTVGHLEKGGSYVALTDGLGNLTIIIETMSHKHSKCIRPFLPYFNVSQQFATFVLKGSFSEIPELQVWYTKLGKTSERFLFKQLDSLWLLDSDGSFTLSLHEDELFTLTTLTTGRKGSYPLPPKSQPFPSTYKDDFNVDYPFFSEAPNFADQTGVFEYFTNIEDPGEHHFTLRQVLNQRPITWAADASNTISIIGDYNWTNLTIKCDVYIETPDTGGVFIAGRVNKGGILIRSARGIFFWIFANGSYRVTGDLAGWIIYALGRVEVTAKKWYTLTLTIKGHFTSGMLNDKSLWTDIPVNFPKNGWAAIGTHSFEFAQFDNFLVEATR

activation, inactive:
COc1ccc2cc(CNc3ccccc3)c(=O)n(CC(=O)Nc3ccc(C(C)=O)cc3)c2c1 4%
CCC(=O)N1CCc2cc(S(=O)(=O)NC(Cc3ccccc3)C(=O)NCc3cccc(OC)c3)ccc21 (stereo not given) -30%
COc1ccc(-c2cn3nc(N4CCCC(C(=O)NCCCOC(C)C)C4)sc3n2)cc1 (stereo not given) -13.8%
Cc1cccc(NC(=O)CC2C(=O)OCCN2Cc2ccccc2)c1 (stereo not given) 1.71%
CC(C)(C)C(=O)Nc1ccc2nc(SCc3ccccc3)sc2c1 18.9%
CC1=C(c2ccc(F)cc2)S(=O)(=O)NC1=NCc1ccccc1Cl 4.82%
Cc1ccc(C(=O)CSc2nc(-c3ccccc3)nc3c2CCCC3)cc1C -20.2%
CCCN(CCC)c1cc(C)nc2nc(-c3ccc(Cl)cc3)nn12 -7.91%
Cc1nc2nc(NC(=O)C(C)C)[nH]n2c(=O)c1Cc1ccccc1 -1.97%
Cc1ccc(CSc2nc3cccnc3n2Cc2ccc(C(=O)NCc3cccs3)cc2)cc1 -8.37%
Cc1ccc(Nc2nc(C(N)=O)c(NC(=O)c3ccccc3Br)s2)cc1 -28.9%
Cc1ccc(NC(=O)C2CCN(C(=O)c3cnn(-c4ccccc4)c3-n3cccc3)CC2)cc1Cl -12.4%
CC1=C(C(=O)Nc2ccc(C)cc2C)C(c2cccs2)n2nc(SCc3ccc(Cl)cc3)nc2N1 (stereo not given) -12.5%
Cc1cc(Oc2nc3ccccn3c(=O)c2/C=C(\C#N)c2nc3ccccc3s2)ccc1Cl -11%
CC(=O)c1ccc(NC(=O)CC2Sc3ccccc3NC2=O)cc1 (stereo not given) -6.13%
COc1ccc(-c2csc3ncnc(Nc4cccc(F)c4)c23)cc1 -8.98%
COCC(C)NS(=O)(=O)c1ccc(N2CCCCS2(=O)=O)cc1 (stereo not given) -22.1%
COc1cc(Cl)c(C)cc1NC(=O)CCn1cnc2onc(-c3ccc(F)cc3)c2c1=O -13.9%
CC(CNC(=O)Cn1c(-c2cccs2)cc2cc(Cl)ccc21)c1ccccc1 (stereo not given) -13.2%
CCOC(=O)c1ccc(NC(=O)c2sc3nc4n(c(=O)c3c2C)CCC4)cc1 -55.2%
CCN1C(C(=O)c2ccccc2)=C(NC(=O)c2ccc(Cl)cc2)c2ccccc2S1(=O)=O -18.1%
CC(=O)N1CCCc2cc(S(=O)(=O)Nc3ccc(OC(F)(F)F)cc3)ccc21 -16.5%
Cc1ccc(-n2ccn(CC(=O)c3ccc(F)cc3)c(=O)c2=O)cc1C -0.079%
COc1cccc(C(=O)NCCc2sc(-c3cccc(C)c3)nc2C)c1 -29.7%
Cc1cccc(C)c1NC(=O)c1cc(S(=O)(=O)N2CCCc3ccccc32)ccc1F -21.9%
CC(C)c1ccc(NC(=O)C(Cc2ccccc2)n2cccc2)cc1 (stereo not given) -14.3%
Cc1ccc2c(CC(=O)Nc3c(C(=O)c4ccc(F)cc4)oc4ccccc34)coc2c1C -27%
CCOc1ccc(NC(=O)Cn2c(=O)n(CC(=O)NCCc3ccccc3)c(=O)c3sccc32)cc1 -7.53%
Cc1ccc(C)c(S(=O)(=O)c2cn(Cc3ccccc3)c3cc(N4CCCC4)c(F)cc3c2=O)c1 -5.45%
COc1ccc2c(CNCCc3ccco3)c(C(=O)O)n(Cc3ccc(F)cc3)c2c1 -8.03%
CCOC(=O)c1ccc(N2C(=O)c3[nH]nc(-c4ccccc4)c3C2c2ccc(C(C)C)cc2)cc1 (stereo not given) -0.321%
CCn1cc(C(=O)NCc2ccc(Cl)cc2)c(=O)c2cc(S(=O)(=O)N3CCc4ccccc4C3)ccc21 -12.9%
CC(=O)Nc1nonc1-c1nnc(SCC(=O)Nc2c(C)cccc2C)n1-c1ccccc1 -10%
COc1cccc(NC(=O)c2oc3ccccc3c2NC(=O)c2ccc(OC(C)C)cc2)c1 -19.1%
Cc1ccc(-n2[nH]c(C)c(N=Nc3cccc(-c4cccc(C(=O)O)c4)c3O)c2=O)cc1C -5.37%
Cn1c(=O)c2[nH]c(Br)nc2n(C)c1=O -20.6%
CCOC(=O)c1c(C)[nH]c(C)c1S(=O)(=O)N(C)CC(=O)N1CCN(c2cccc(C)c2C)CC1 -1.15%
COc1cccc(C(=O)Nc2nc3nc(C)c(Cc4ccccc4)c(=O)n3[nH]2)c1 -2.5%
Cc1cccc(N2C(=O)C(CC(=O)Nc3ccccc3)N(C3CCCCC3)C2=O)c1 (stereo not given) -13%
COc1ccccc1C(=O)Nc1ccccc1C(=O)OCc1cc(=O)n2c(C)csc2n1 -31.4%
CCOC(=O)c1c(C)oc2nc(C)nc(NCCCN3CCN(c4ccccc4OC)CC3)c12 -25.7%
Cc1nn(C)c2c1c(-c1ccccc1)cc(=O)n2Cc1ccc(Br)cc1F -11%
O=C(c1cccc([N+](=O)[O-])c1)N1c2nc(-c3ccco3)nn2C2(CCCCC2)[C@@H]2CCCC[C@@H]21 -5.99%
COc1ccc(-c2cc(C(F)(F)F)nc(SCC(=O)N3CCCCC3)n2)cc1 -7.8%
Cc1ccc(CNC(=O)CCCn2c(=O)c3ccccc3n(Cc3ccccc3Cl)c2=O)cc1 -0.992%
CCCCOc1ccc(NC(=O)c2cc3c(n(-c4ccc(Cl)cc4)c2=O)CCCC3=O)cc1 -16.1%
CCCC(=O)c1cc2c(cc1NC(=O)c1ccccc1F)OCCO2 -10.3%
Cc1ccc(OCC(=O)N(Cc2ccc(N(C)C)cc2)CC2CCCO2)cc1C (stereo not given) -13.2%
O=S(=O)(NCCc1csc2nc(-c3ccc(F)cc3)nn12)c1ccc2c(c1)OCCO2 -38.4%
CC(=O)Nc1ccc(NC(=O)CC(C)n2ccc(C)n2)cc1 (stereo not given) -22.2%
Cc1cc(C)c(-c2csc(-c3cc4ccccc4oc3=O)n2)cc1C -41.6%
CCCN1CCN(CCNC(=O)Nc2cc(Cl)c(OC)cc2OC)CC1 -2.05%
COc1cccc(CNC(=O)C2CCCN(S(=O)(=O)c3ccc4c(ccn4C)c3)C2)c1OC (stereo not given) -11.3%
Cc1cc(C(=O)Nc2cccc(C(F)(F)F)c2)c2c(C)nn(-c3cccc(F)c3)c2n1 -5.43%
Cc1nn2c3c(cnc2c1-c1ccc(F)cc1)C(=O)CC(c1ccccc1)C3 (stereo not given) -10%
O=C(Cn1c(=O)n(CCCS(=O)(=O)C2CCCCC2)c(=O)c2ccccc21)Nc1ccccc1F -17.8%
O=C(NCCc1ccccc1)c1c2c(nc3ccccc13)C(=O)N(C1CCCCC1)C2 -14.4%
Cc1oc(-c2cccc(Cl)c2)nc1CN1CCC(C(=O)NCc2ccc(F)cc2)CC1 5.05%
O=C(Nc1nnc(N2CCCC2)s1)Nc1cc(F)ccc1F -20.4%
CN1CCC(N(Cc2cccs2)c2ccccc2)CC1 12.5%
Cc1ccccc1Cn1c(=O)n(CCCCC(=O)NCc2ccc3c(c2)OCO3)c(=O)c2ccccc21 -5.65%
CCOC(=O)c1c(-c2ccccc2)oc2ccc(OCc3ccc(C)cc3)cc12 -0.835%
Cc1cc2c(n1-c1ccc(C(=O)NCc3cccc(Br)c3)cc1)CCC(C)C2 (stereo not given) -20.2%
Cc1cccc(-c2nc3c4ccccc4n(CC(=O)Nc4cc(F)ccc4F)c(=O)n3n2)c1 2.23%
Cc1ccc(N2C(=O)CSC23C(=O)Nc2ccccc23)cc1F (stereo not given) -12.7%
CC(=O)c1cccc(NC(=O)C2CCN(c3nnc(-n4cccc4)s3)CC2)c1 -22.4%
O=C(COCCOCCOCC(=O)Nc1c(I)cc(I)c(C(=O)O)c1I)Nc1c(I)cc(I)c(C(=O)O)c1I -7.39%
Nc1ccc(N)c([N+](=O)[O-])c1 -8.89% [at 114 µM]
C=CCOc1cc(Cl)ccc1C(=O)NCCN(CC)CC -14.1%
CCCN1C(=O)c2[nH]nc(-c3ccc(F)cc3)c2C1c1ccc(O)c(OCC)c1 (stereo not given) -8.16%
COc1cccc(NC(=O)Cc2ccc(NC(=O)N3CCCCc4ccccc43)cc2)c1 -2.26%
COc1ccc(C(=O)Cn2c(=O)n3nc(CCn4nc(C)cc4C)nc3c3cc(OC)c(OC)cc32)cc1 -10.3%
COc1ccc(S(=O)(=O)Nc2c(C)n(C)n(-c3ccccc3)c2=O)cc1Br -15.5%
CCOc1ccc(C(=O)Nc2c(C)nc(Nc3ccccc3)nc2Nc2ccccc2)cc1OCC -8%
O=C(c1ccc(Br)cc1)N1CCC(c2nc3ccccc3s2)CC1 -16.7%
CCOC(=O)c1[nH]c(C)c(CCC(=O)Nc2ccc(C)cc2Cl)c1C -17.3%
CCOc1ccc(CNC(=O)C(C)n2ncn3cccc3c2=O)cc1 (stereo not given) -10%
CCOc1ccccc1CNC(=O)C1=C(C)C(=O)OC12CCN(C(C)=O)CC2 -11%
CC(C)Nc1cc(N2CCN(C3CCCCC3)CC2)c2noc3c2c1C(=O)c1ccccc1-3 -12.9%
COc1ccccc1N1CCN(C(=O)CSc2nc(C)cc(=O)[nH]2)CC1 1.93%
COc1ccc(CCNc2nc(-c3ccccc3OC)cc(C(F)(F)F)n2)cc1OC 12.7%
CCOC(=O)c1sc(NC(=O)c2nc3nc(C)cc(C(F)F)n3n2)c(C(=O)OC(C)C)c1C 4%
COc1ccccc1C(=O)Nc1ccccc1C(=O)OCc1cc(=O)n2ccsc2n1 -8.55%
CCCOc1ccc(CNC(=O)CCCN2C(=O)CSc3c2c(C)nn3-c2ccccc2)cc1 -9.42%
Cc1ccc(-c2nc(CCNC(=O)C(=O)Nc3ccc(C)c(Cl)c3)cs2)cc1 -9.38%
CC(C)(C)NC(=O)[C@@H]1CN(Cc2cccnc2)CCN1C[C@@H](O)C[C@@H](Cc1ccccc1)C(=O)N[C@H]1c2ccccc2C[C@H]1O -12.4%
CCCN(CCC)C(=O)Cn1c(SCc2cccc(F)c2)nc2cccnc21 -7.11%
N#Cc1cccc(NC(=O)C2CCN(S(=O)(=O)c3ccc4c(c3)CCCN4C(=O)C3CCC3)CC2)c1 -20.6%
CCOc1ccccc1NC(=O)CSc1nc2cc(OC)c(OC)cc2c2nc(CCn3c(C)nc4ccccc43)nn12 -10.3%
Cc1ccc(CNC(=O)c2cc3c(=O)n4cccc(C)c4nc3s2)cc1 -17%
Cc1nc(-c2ccc(F)cc2)sc1CCNC(=O)c1ccccc1C(F)(F)F -29%
Cc1ccc2oc(C(=O)NCC(c3ccc(Cl)cc3)N3CCOCC3)c(C)c2c1 (stereo not given) -17.4%
CC1=C(C(=O)Nc2ccccc2C)C(c2sccc2C)n2ncnc2N1 (stereo not given) -5.13%
Cc1cccc(CSc2ncc(Cl)c(C(=O)Nc3nnc(C)s3)n2)c1 13.5%
Cc1ccc(S(N)(=O)=O)cc1NC(=O)c1c(-c2c(Cl)cccc2Cl)noc1C -6.7%
